This note sets out measurements from article PMC4336329 (PLoS ONE, 2015).

The campaign covered roughly 310,000 compounds. About 2,200 (0.71%) showed an effect of 50% or more. Effects have a minus sign here. The list shows a part of the results.

The target of this experiment is human ether-à-go-go-related gene (hERG) potassium channel (human, UniProt Q12809). The experiment in a line: primary screen, population patch clamp on CHO cells stably expressing hERG.
human ether-à-go-go-related gene (hERG) potassium channel, sequence (Q12809 whole entry, looked up): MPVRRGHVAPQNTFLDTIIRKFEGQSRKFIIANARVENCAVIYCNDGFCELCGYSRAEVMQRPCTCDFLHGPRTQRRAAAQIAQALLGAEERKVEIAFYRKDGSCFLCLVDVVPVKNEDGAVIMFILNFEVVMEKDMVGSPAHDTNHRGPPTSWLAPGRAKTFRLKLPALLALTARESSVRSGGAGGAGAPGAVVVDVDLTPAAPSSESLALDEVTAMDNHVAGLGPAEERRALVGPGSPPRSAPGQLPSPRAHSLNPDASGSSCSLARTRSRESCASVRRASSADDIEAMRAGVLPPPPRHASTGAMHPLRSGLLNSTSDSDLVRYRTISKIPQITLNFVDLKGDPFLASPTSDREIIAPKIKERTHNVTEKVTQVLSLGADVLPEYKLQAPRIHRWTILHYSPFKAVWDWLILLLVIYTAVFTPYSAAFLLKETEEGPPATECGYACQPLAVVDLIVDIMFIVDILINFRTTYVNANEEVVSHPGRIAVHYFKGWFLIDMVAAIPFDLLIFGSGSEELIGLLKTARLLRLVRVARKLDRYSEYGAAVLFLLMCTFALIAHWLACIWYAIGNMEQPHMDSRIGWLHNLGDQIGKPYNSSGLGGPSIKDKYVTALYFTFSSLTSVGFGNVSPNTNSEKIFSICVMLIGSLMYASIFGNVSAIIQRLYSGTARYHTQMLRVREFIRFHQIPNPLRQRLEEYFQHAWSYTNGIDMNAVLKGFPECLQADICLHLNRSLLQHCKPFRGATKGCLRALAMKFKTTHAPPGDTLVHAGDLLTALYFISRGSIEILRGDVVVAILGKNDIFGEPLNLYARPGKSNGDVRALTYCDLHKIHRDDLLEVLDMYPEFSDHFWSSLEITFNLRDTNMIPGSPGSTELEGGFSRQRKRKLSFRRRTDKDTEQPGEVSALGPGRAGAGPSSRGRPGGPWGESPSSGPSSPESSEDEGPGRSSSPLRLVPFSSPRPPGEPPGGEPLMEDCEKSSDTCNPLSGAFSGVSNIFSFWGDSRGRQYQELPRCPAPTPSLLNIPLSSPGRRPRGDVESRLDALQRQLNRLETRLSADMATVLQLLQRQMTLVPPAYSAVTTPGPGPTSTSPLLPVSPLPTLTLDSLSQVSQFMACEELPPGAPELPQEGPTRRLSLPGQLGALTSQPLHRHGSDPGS
Consider `CCCN1C(=O)/C(=c2\sc3nc(=O)c(Cc4ccc(C)cc4)nn3c2=O)c2ccccc21`, for which the “hERG current change (%, negative = inhibition) at 1uM” value turned out to be 13%.

On to `O=C(Nc1ccc(N2CCOCC2)cc1)C1CC(=O)N(c2ccc(Cl)cc2)C1` (stereo not shown), for which the “hERG current change (%, negative = inhibition) at 1uM” value turned out to be 12.7%.

In the case of `CN(CC(=O)Nc1c(Cl)cccc1Cl)C(=O)c1ccncc1`, the “hERG current change (%, negative = inhibition) at 1uM” value is reported as 17.4%.

`CCC(CC)NC(=O)CSc1nnc(-c2ccc(OC)cc2)n1C(C)C`: the “hERG current change (%, negative = inhibition) at 1uM” value was 4.42%.

As for `COc1ccc(N2CCN(C(=O)c3ccc4c(=O)n(CCc5ccc(OC)c(OC)c5)c(=O)[nH]c4c3)CC2)cc1`, the “hERG current change (%, negative = inhibition) at 1uM” value was 12.8%.

Take `N#Cc1cccnc1N1CCN(C(=O)COCC(=O)O)CC1`: the “hERG current change (%, negative = inhibition) at 1uM” value is 13%.

With `COCC(C)n1c(C)cc(C(=O)COC(=O)c2ccc(N3CCCC3=O)cc2)c1C` (stereo not shown), the “hERG current change (%, negative = inhibition) at 1uM” value is on record as 16.5%.

Consider `CCOc1cc(/C=C2\SC(=S)N(NS(=O)(=O)c3ccc(C)cc3)C2=O)ccc1O`, for which the “hERG current change (%, negative = inhibition) at 1uM” value is given as 9.88%.

As for `Cc1noc(C)c1S(=O)(=O)N1CCC(C(=O)N2CCN(c3ccc(Cl)cc3)CC2)CC1`, the “hERG current change (%, negative = inhibition) at 1uM” value came to 6.26%.

Take `COc1ccc(C2C3=C(CCCC3=O)Nc3nc(C(F)(F)F)nn32)cc1OC` (stereo not shown): the “hERG current change (%, negative = inhibition) at 1uM” value turned out to be 13.1%.

`N/C(=N\NC(=O)Nc1ccc(Cl)cc1)c1ccccn1`: the “hERG current change (%, negative = inhibition) at 1uM” value is listed as -8.23%.

Turning to `COc1ccc(Cc2[nH]n3c(=O)c(Cl)c(C)nc3c2-c2ccccc2)cc1`, the “hERG current change (%, negative = inhibition) at 1uM” value is reported as 16.8%.

`Cc1oc(-c2ccc(Cl)cc2)nc1CS(=O)CC(=O)NCc1ccccn1` (stereo not shown): the “hERG current change (%, negative = inhibition) at 1uM” value is listed as 10.8%.

`O=C(c1ccc(F)cc1)C1CCN(C(=S)Nc2ccccc2)CC1`: the “hERG current change (%, negative = inhibition) at 1uM” value is listed as 3.76%.

With `Cc1nnc(N(Cc2ccco2)C(=O)c2cccc(C#N)c2)s1`, the “hERG current change (%, negative = inhibition) at 1uM” value is given as 6.22%.

Take `COC(=O)C(/C=N/O)NC(=O)c1ccccc1` (stereo not shown): the “hERG current change (%, negative = inhibition) at 1uM” value turned out to be 15.7%.

Turning to `COc1ccc(N2CCN(C(=O)CSc3nc4cc(OC)c(OC)cc4cc3C#N)CC2)cc1`, the “hERG current change (%, negative = inhibition) at 1uM” value stood at 6.4%.

On to `Cc1noc(C)c1CN1C(=O)c2ccc([N+](=O)[O-])cc2C1=O`, for which the “hERG current change (%, negative = inhibition) at 1uM” value worked out at 9.93%.

Consider `Cc1cc(C)c(NC(=O)CN2C(=O)NC3(CCCc4ccccc43)C2=O)c(Cl)c1` (stereo not shown), for which the “hERG current change (%, negative = inhibition) at 1uM” value was determined as 12.7%.

As for `COc1ccc(NC(=O)CSc2nnc(CN3CCOCC3)n2-c2ccccc2)cc1Cl`, the “hERG current change (%, negative = inhibition) at 1uM” value is recorded as -2.55%.

Take `CCOC(=O)CSc1ncnc2c1cnn2-c1ccc(Cl)cc1`: the “hERG current change (%, negative = inhibition) at 1uM” value was -0.206%.

For `CCCCN(C)CCCN1C(=O)C2C(C(=O)Nc3cccc(OC)c3)C3C=CC2(O3)C1C(=O)NC1CCCCC1C` (stereo not shown), the “hERG current change (%, negative = inhibition) at 1uM” value is 13.1%.

Take `CC(C)CNC1=C(C(=S)Nc2ccccc2)C(=O)CC(C)(C)C1`: the “hERG current change (%, negative = inhibition) at 1uM” value is 13.7%.

Take `O=C(NCCc1ccccc1)C(=O)NCC1OCCCN1S(=O)(=O)c1ccc(F)cc1` (stereo not shown): the “hERG current change (%, negative = inhibition) at 1uM” value came to 3.24%.

For the compound `N#C/C(=C\c1cccs1)C(=O)Nc1ccccn1`, the “hERG current change (%, negative = inhibition) at 1uM” value was 4.17%.

`COc1ccc(-c2csc(NC3OC(=O)c4c3ccc(OC)c4OC)n2)cc1OC` (stereo not shown): the “hERG current change (%, negative = inhibition) at 1uM” value was 11.5%.

Consider `Cc1cccc(C)c1OCC(N)C(C)C.I` (stereo not shown), for which the “hERG current change (%, negative = inhibition) at 1uM” value is listed as -5.22%.

In the case of `NC(=O)CC(NC(=O)Cc1cccc2ccccc12)c1ccc(NC2CCCCCCC2)c([N+](=O)[O-])c1` (stereo not shown), the “hERG current change (%, negative = inhibition) at 1uM” value is 6.37%.

For the compound `CN1CCN(C(=O)C2(NC(=O)NCc3ccccc3)CCCCC2)CC1`, the “hERG current change (%, negative = inhibition) at 1uM” value is on record as 14.1%.

Turning to `CCOc1ccc(C2NCCc3cc(OC)c(OC)cc32)cc1OC` (stereo not shown), the “hERG current change (%, negative = inhibition) at 1uM” value is on record as 10.2%.

Turning to `Clc1c(-c2nnc3n2CCC3)sc2ccccc12`, the “hERG current change (%, negative = inhibition) at 1uM” value worked out at 14.5%.

Turning to `COC(=O)c1cnn(-c2ccc(C)c(C)c2)c1-n1cccc1`, the “hERG current change (%, negative = inhibition) at 1uM” value was determined as 9.4%.

Turning to `CCCC(C)c1nc(C(N)=O)c2[nH]c(=O)n(-c3ccc(OC)cc3OC)c2n1` (stereo not shown), the “hERG current change (%, negative = inhibition) at 1uM” value was 9.22%.

For `Clc1ccc(N2CCN(/N=C/c3cccnc3)CC2)cc1`, the “hERG current change (%, negative = inhibition) at 1uM” value is recorded as 8.03%.

Consider `Cc1cc(C)c(S(=O)(=O)NCCn2c(C)cc3ccccc32)c(C)c1`, for which the “hERG current change (%, negative = inhibition) at 1uM” value is given as 15.3%.

Take `CCOC(=O)c1ccccc1NC(=O)COC(=O)CCC(=O)c1ccccc1`: the “hERG current change (%, negative = inhibition) at 1uM” value worked out at 10.2%.

Consider `CC(C)CCNC(=O)CCC(=O)NNc1nc2ccccc2c2nc(-c3ccccc3)nn12`, for which the “hERG current change (%, negative = inhibition) at 1uM” value was found to be 7.5%.

Consider `CCC(CC)NC(=O)Cn1c(C(C)NC(C)=O)nc2ccccc21` (stereo not shown), for which the “hERG current change (%, negative = inhibition) at 1uM” value is reported as 11.9%.

As to `Cn1nc(-c2ccccc2)c(C#N)c1Sc1cccc(Cl)c1`, the “hERG current change (%, negative = inhibition) at 1uM” value was 10.4%.

On to `O=C(CCS(=O)(=O)c1cccc2nsnc12)NC1CCCCCC1`, for which the “hERG current change (%, negative = inhibition) at 1uM” value is 22.7%.

As to `Clc1nc(NCc2cccnc2)nc(N2CCOCC2)n1`, the “hERG current change (%, negative = inhibition) at 1uM” value was found to be 10.1%.

With `O=C1CC(c2cccc(Cl)c2)Cc2nc(N3CCN(c4ccccc4)CC3)ncc21` (stereo not shown), the “hERG current change (%, negative = inhibition) at 1uM” value amounted to 9.93%.

With `COc1ccc2c(c1OC)C(=O)OC2c1c(O)n(Cc2ccc(F)cc2)c(=O)[nH]c1=O` (stereo not shown), the “hERG current change (%, negative = inhibition) at 1uM” value is reported as 4.88%.

In the case of `O=C(COC(=O)Cc1ccsc1)Nc1ccccc1Cl`, the “hERG current change (%, negative = inhibition) at 1uM” value turned out to be 2.57%.

With `O=C(CN1CCN(c2ccccc2O)CC1)NC(=O)NCc1ccccc1`, the “hERG current change (%, negative = inhibition) at 1uM” value came out at 10.5%.

In the case of `Cc1ccsc1/C=N/NC(=O)c1cccc(S(=O)(=O)Nc2ccccc2Cl)c1`, the “hERG current change (%, negative = inhibition) at 1uM” value amounted to 5.81%.

`COc1ccc(OC)c(S(=O)(=O)N2CCN(c3ccccc3)CC2)c1`: the “hERG current change (%, negative = inhibition) at 1uM” value is 4.86%.

As to `O=C(Oc1ccc(Br)cc1C(=S)N1CCCC1)c1ccccc1F`, the “hERG current change (%, negative = inhibition) at 1uM” value is given as 12.7%.

Consider `COC(=O)CS(=O)(=O)c1ccc(C)cc1`, for which the “hERG current change (%, negative = inhibition) at 1uM” value amounted to 18.5%.

For `CS(=O)(=O)c1ccc(Cl)c(NC(=O)COC(=O)c2ccc(F)cc2Cl)c1`, the “hERG current change (%, negative = inhibition) at 1uM” value worked out at 2.91%.

With `COc1ccc(NC(=O)CSc2nnc(CNC(=O)c3ccco3)o2)cc1`, the “hERG current change (%, negative = inhibition) at 1uM” value is on record as 12%.

Consider `c1ccc(CNc2nc(NCc3ccco3)nc(N3CCOCC3)n2)cc1`, for which the “hERG current change (%, negative = inhibition) at 1uM” value worked out at 2.88%.

As to `Cc1ccc2nc(SCCC#N)nc(C)c2c1`, the “hERG current change (%, negative = inhibition) at 1uM” value is on record as 10.5%.

On to `O=C(CC(Cc1ccccc1)C(=O)O)Nc1ccc(F)cc1` (stereo not shown), for which the “hERG current change (%, negative = inhibition) at 1uM” value was found to be 13.5%.

Regarding `Cc1nc(CNC(=O)c2ccccc2OC2CCN(S(C)(=O)=O)CC2)cs1`, the “hERG current change (%, negative = inhibition) at 1uM” value was found to be 4.67%.
